These results are taken from PMC9911399, “Two distinct binding modes provide the RNA-binding protein RbFox with extraordinary sequence specificity”.

Where a chain is given by its changes, count along the chain named. The list shows a part of the results.

First the molecules themselves.
T1: RBFOX1 RRM RbFoxmut (Fox-RRM*) (Homo sapiens, UniProt Q9NWB1 109-208, R118D;E147R;N151S;E152T)
T1 sequence: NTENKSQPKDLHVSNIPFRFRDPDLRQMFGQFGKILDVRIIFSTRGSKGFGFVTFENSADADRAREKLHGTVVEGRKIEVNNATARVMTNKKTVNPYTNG

B1: UCCUCAC (DNA:RNA)
RNA: GGGAGACCGGAAUUCAGAUUGUCCUCCUCACUUAAAUCCCGUCGUAGCCACCA
DNA 1: CAATCTGAATTCCGGTCTCCC
DNA 2: TGGTGGCTACGACGGGATT
B2: UAGGGCC (DNA:RNA)
RNA: B1 RNA with C26A, C27G, U28G, C29G, A30C
DNA 1: CAATCTGAATTCCGGTCTCCC
DNA 2: TGGTGGCTACGACGGGATT
B3: GACAGUC (DNA:RNA)
RNA: B1 RNA with U25G, C26A, U28A, C29G, A30U
DNA 1: CAATCTGAATTCCGGTCTCCC
DNA 2: TGGTGGCTACGACGGGATT
B4: UCGCUAA (DNA:RNA)
RNA: B1 RNA with C27G, U28C, C29U, C31A
DNA 1: CAATCTGAATTCCGGTCTCCC
DNA 2: TGGTGGCTACGACGGGATT
B5: CGAUGUU (DNA:RNA)
RNA: B1 RNA with U25C, C26G, C27A, C29G, A30U, C31U
DNA 1: CAATCTGAATTCCGGTCTCCC
DNA 2: TGGTGGCTACGACGGGATT
B6: AGGAAGU (DNA:RNA)
RNA: GGGAGACCGGAAUUCAGAUUGUCCAGGAAGUUUAAAUCCCGUCGUAGCCACCA
DNA 1: CAATCTGAATTCCGGTCTCCC
DNA 2: TGGTGGCTACGACGGGATT
B7: CGCUAGU (DNA:RNA)
RNA: B6 RNA with A25C, G27C, A28U
DNA 1: CAATCTGAATTCCGGTCTCCC
DNA 2: TGGTGGCTACGACGGGATT
B8: UCCCUCC (DNA:RNA)
RNA: B1 RNA with U28C, C29U, A30C
DNA 1: CAATCTGAATTCCGGTCTCCC
DNA 2: TGGTGGCTACGACGGGATT
B9: CGCGGCG (DNA:RNA)
RNA: B6 RNA with A25C, G27C, A28G, A29G, G30C, U31G
DNA 1: CAATCTGAATTCCGGTCTCCC
DNA 2: TGGTGGCTACGACGGGATT
B10: ACAAUAU (DNA:RNA)
RNA: B6 RNA with G26C, G27A, A29U, G30A
DNA 1: CAATCTGAATTCCGGTCTCCC
DNA 2: TGGTGGCTACGACGGGATT
B11: UGAUGCC (DNA:RNA)
RNA: B1 RNA with C26G, C27A, C29G, A30C
DNA 1: CAATCTGAATTCCGGTCTCCC
DNA 2: TGGTGGCTACGACGGGATT
B12: GUUCGAU (DNA:RNA)
RNA: B6 RNA with A25G, G26U, G27U, A28C, A29G, G30A
DNA 1: CAATCTGAATTCCGGTCTCCC
DNA 2: TGGTGGCTACGACGGGATT
B13: AGUAUGA (DNA:RNA)
RNA: B6 RNA with G27U, A29U, U31A
DNA 1: CAATCTGAATTCCGGTCTCCC
DNA 2: TGGTGGCTACGACGGGATT
B14: GUUUAAU (DNA:RNA)
RNA: B6 RNA with A25G, G26U, G27U, A28U, G30A
DNA 1: CAATCTGAATTCCGGTCTCCC
DNA 2: TGGTGGCTACGACGGGATT
B15: CGUCGGA (DNA:RNA)
RNA: B6 RNA with A25C, G27U, A28C, A29G, U31A
DNA 1: CAATCTGAATTCCGGTCTCCC
DNA 2: TGGTGGCTACGACGGGATT
B16: CGUCCUA (DNA:RNA)
RNA: B6 RNA with A25C, G27U, A28C, A29C, G30U, U31A
DNA 1: CAATCTGAATTCCGGTCTCCC
DNA 2: TGGTGGCTACGACGGGATT
B17: CAUCUGU (DNA:RNA)
RNA: B6 RNA with A25C, G26A, G27U, A28C, A29U
DNA 1: CAATCTGAATTCCGGTCTCCC
DNA 2: TGGTGGCTACGACGGGATT
B18: AUGCGGU (DNA:RNA)
RNA: B6 RNA with G26U, A28C, A29G
DNA 1: CAATCTGAATTCCGGTCTCCC
DNA 2: TGGTGGCTACGACGGGATT
B19: UUACACA (DNA:RNA)
RNA: B6 RNA with A25U, G26U, G27A, A28C, G30C, U31A
DNA 1: CAATCTGAATTCCGGTCTCCC
DNA 2: TGGTGGCTACGACGGGATT
B20: GAUCGAU (DNA:RNA)
RNA: B6 RNA with A25G, G26A, G27U, A28C, A29G, G30A
DNA 1: CAATCTGAATTCCGGTCTCCC
DNA 2: TGGTGGCTACGACGGGATT

The target of this experiment is T1, RBFOX1 RRM RbFoxmut (Fox-RRM*). Description: EMSA; HiTS-Eq, 1 nM pool, 10 min; buffer printed only for the single-RNA assays: 10 mM Tris pH 7.5, 150 mM NaCl, 3.4 mM EDTA, 0.001% NP-40, 30 C. Conditions: tags: His6 N-terminal (pET28a); label: 5' 32P. The essentials: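 A pool of RNA with 7 randomized nucleotides, 5′-radiolabelled and with DNA-annealed flanks, was equilibrated at 1 nM for 10 min in 50 µL with purified RbFox RRM, wild type or mutant, across increasing protein concentrations. Free RNA was separated by 8% native PAGE, excised, reverse-transcribed, barcoded by PCR and sequenced. Relative association constants were obtained from read-count changes of each RNA species versus the control reaction and normalised to the cognate motif.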
On the technique in general: Mobility shift assays separate free from complexed probe on a gel.
In the case of B1, the binding signal was 0.114 KA relative to UGCAUGU.

On to B2, for which the binding signal was 0.128 KA relative to UGCAUGU.

On to B3, for which the binding signal was 0.0521 KA relative to UGCAUGU.

B4: the binding signal was 0.106 KA relative to UGCAUGU.

In the case of B5, the binding signal was 0.119 KA relative to UGCAUGU.

B6: the binding signal was 0.118 KA relative to UGCAUGU.

Consider B7, for which the binding signal was 0.144 KA relative to UGCAUGU.

B8: the binding signal is 0.0896 KA relative to UGCAUGU.

Take B9: the binding signal was 0.134 KA relative to UGCAUGU.

For the molecule B10, the binding signal is 0.102 KA relative to UGCAUGU.

As for B11, the binding signal is 0.191 KA relative to UGCAUGU.

For B12, the binding signal was 0.0982 KA relative to UGCAUGU.

As to B13, the binding signal is 0.189 KA relative to UGCAUGU.

Regarding B14, the binding signal is 0.126 KA relative to UGCAUGU.

Consider B15, for which the binding signal is 0.0839 KA relative to UGCAUGU.

As for B16, the binding signal is 0.0918 KA relative to UGCAUGU.

On to B17, for which the binding signal is 0.0783 KA relative to UGCAUGU.

B18: the binding signal is 0.126 KA relative to UGCAUGU.

On to B19, for which the binding signal was 0.0868 KA relative to UGCAUGU.

As to B20, the binding signal was 0.0971 KA relative to UGCAUGU.
